Laboratory results taken from patent US20220127364A1 (Innovent, published 2022).

B1: HzNB1613-FC (Fc fusion)
heavy: QVQLQESGGGLVQPGGSLRLSCAASAYTISRNSMGWFRQAPGKGLEGVAAIESDGSTSYSDSVKGRFTISLDNSKNTLYLEMNSLRAEDTAVYYCAAPKVGLGPRTALGHLAFMTLPALNYWGQGTLVTVSS[sequence of human IgG1 Fc with changes not given]
notes: also called AmNB1613.0; parent antibody
B2: AmNB1613.25 (AmNB1613^mutant-FC) (Fc fusion)
heavy: QVQLQESGGGLVQPGGSLRLSCAASAYTISRNSMGWFRQAPGKGLEGVAAIESDGSTSYSDSVKGRFTISLDNSKNTLYLEMNSLRAEDTAVYYCAAPKVGLGPRTALGHLAFMTLQDLNDWGQGTLVTVSS[sequence of human IgG1 Fc with changes not given]
B3: AmNB1613.36 (AmNB1613^mutant-FC) (Fc fusion)
heavy: QVQLQESGGGLVQPGGSLRLSCAASAYTISRNSMGWFRQAPGKGLEGVAAIESDGSTSYSDSVKGRFTISLDNSKNTLYLEMNSLRAEDTAVYYCAAPKVGLGPRTALGHLAFMILADLNDWGQGTLVTVSS[sequence of human IgG1 Fc with changes not given]
B4: AmNB1613.28 (AmNB1613^mutant-FC) (Fc fusion)
heavy: QVQLQESGGGLVQPGGSLRLSCAASAYTISRNSMGWFRQAPGKGLEGVAAIESDGSTSYSDSVKGRFTISLDNSKNTLYLEMNSLRAEDTAVYYCAAPKVGLGPRTALGHLAFMILQDLNYWGQGTLVTVSS[sequence of human IgG1 Fc with changes not given]
B5: AmNB1613.1 (AmNB1613^mutant-FC) (Fc fusion)
heavy: QVQLQESGGGLVQPGGSLRLSCAASADPMSRNSMGWFRQAPGKGLEGVAAIESDGSTSYSDSVKGRFTISLDNSKNTLYLEMNSLRAEDTAVYYCAAPKVGLGPRTALGHLAFMTLPALNYWGQGTLVTVSS[sequence of human IgG1 Fc with changes not given]
B6: AmNB1613.12 (AmNB1613^mutant-FC) (Fc fusion)
heavy: QVQLQESGGGLVQPGGSLRLSCAASDNPMSRNSAGWFRQAPGKGLEGVAAIESDGSTSYSDSVKGRFTISLDNSKNTLYLEMNSLRAEDTAVYYCAAPKVGLGPRTALGHLAFMTLPALNYWGQGTLVTVSS[sequence of human IgG1 Fc with changes not given]

Target: T1, human PD-L1 (Acro Biosystems, Catalog No. PD1-H5229) (human, UniProt Q9NZQ7 partial chain)
T1 construct: Soluble bought protein used in BLI and SPR; also called antigen human PD-L1
Test: BLI (Octet Red96), purified sample captured on AHQ sensor, human PD-L1 in solution, 1:1 model
Method: (§1) Kinetic analysis was performed on the assay results using a 1:1 binding model.

Kd [nM]	koff [s⁻¹]	kon [M⁻¹ s⁻¹]	Binder
43	0.00346	80500	B1
6.87	0.000887	129000	B2
4.21	0.000702	167000	B3
6.87	0.000773	113000	B4
8.14	0.00104	128000	B5
6.72	0.000932	139000	B6

Target: T1, human PD-L1 (Acro Biosystems, Catalog …)
Test: BLI (Octet Red96), supernatant sample captured on AHQ sensor, 100 nM human PD-L1 in solution, 1:1 model
Method: as §1

Kd [nM]	Binder
16.4	B1
2.15	B2
1.76	B3
2.67	B4
2.72	B5
2.26	B6

Target: T1, human PD-L1 (Acro Biosystems, Catalog …)
Test: SPR, antibody captured by anti-human Fc antibody on CM5 chip, human PD-L1 0.15-20 nM as analyte, 1:1 model

Kd [nM]	koff [s⁻¹]	kon [M⁻¹ s⁻¹]	Binder
3.92	0.00581	1.48e+06	B1
0.204	0.000489	2.4e+06	B2
0.176	0.000595	3.37e+06	B4
0.301	0.000522	1.73e+06	B5
0.409	0.000531	1.3e+06	B6

Target: T2, human PD-L1 on the CHO cell surface (human, UniProt Q9NZQ7)
T2 construct: whole, on cells; also called CHO-PD-L1 cells; PD-L1+ CHOK1 cells
Test: flow cytometry on CHO cells expressing human PD-L1 (CHOS-huPD-L1), sample after 30 days at 40 C

EC50 (read off the curve) [nM]	Binder
~5	B5

Target: T2, human PD-L1 on the CHO cell surface
Test: as above
Remark: another data set of the same source

T2 sequence (Q9NZQ7 19-290): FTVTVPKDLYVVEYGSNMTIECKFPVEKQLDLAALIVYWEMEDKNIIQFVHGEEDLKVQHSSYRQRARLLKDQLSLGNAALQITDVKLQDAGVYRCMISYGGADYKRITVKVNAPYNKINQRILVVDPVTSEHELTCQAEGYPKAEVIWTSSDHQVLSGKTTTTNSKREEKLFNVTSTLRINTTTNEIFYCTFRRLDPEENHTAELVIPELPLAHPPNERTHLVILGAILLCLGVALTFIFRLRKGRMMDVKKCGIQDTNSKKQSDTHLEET

EC50 (read off the curve) [nM]	Binder
~4	B6

Target: T2, human PD-L1 on the CHO cell surface
Test: as above
Remark: another data set of the same source

EC50 (read off the curve) [nM]	Binder
~3	B2

Target: T2, human PD-L1 on the CHO cell surface
Test: as above
Remark: another data set of the same source

EC50 (read off the curve) [nM]	Binder
~4	B4

Target: T2, human PD-L1 on the CHO cell surface
Test: flow cytometry on CHO cells expressing human PD-L1 (CHOS-huPD-L1), sample before storage at 40 C

EC50 (read off the curve) [nM]	Binder
~5	B5

Target: T2, human PD-L1 on the CHO cell surface
Test: as above
Remark: another data set of the same source

EC50 (read off the curve) [nM]	Binder
~4	B6

Target: T2, human PD-L1 on the CHO cell surface
Test: as above
Remark: another data set of the same source

EC50 (read off the curve) [nM]	Binder
~3	B2

Target: T2, human PD-L1 on the CHO cell surface
Test: as above
Remark: another data set of the same source

EC50 (read off the curve) [nM]	Binder
~4	B4
